Among all 390,000 compounds or so, about 150 (0.038%) were called active. Another 3% or so got no clear call; they are omitted. Calls follow the shape of the dose curve; as a rule, active = well fitted inhibition curve with a large enough effect; inconclusive = small, poorly fitted or top-dose-only effect; inactive = no such curve, though single readings can be large or run the other way. The entries are a selection whose mix differs from that of the whole data set. A structure can be active in one record and inactive in another.
% is scaled to controls: 0 for no effect and ±100 for the full control effect; potency is read from the fitted curve at half-maximal effect.

In this assay the target is Regulator of G-protein signaling 4 (Homo sapiens) (UniProt P49798). Kind of assay: Inhibitors of Regulator of G Protein Signaling (RGS) 4: qHTS. Also: nearly all actives have a fitted effect of over 75% in size. The settings on record: Transcreener GDP fluorescence polarization, RGS4-accelerated GTP hydrolysis; series mostly up to 114 µM; activity change, negative = inhibition: at the top concentration. An outline of the steps: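 MLSMR compounds (23 nl, pin-transferred) preincubated 10 min at room temperature with a 500nM (2x) first reagent, then RGS4 at 900nM (2x) plus Transcreener GDP mix added; fluorescence polarization (620/688 nm) read before and after 90 min at 30 °C.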
Sequence of UniProt P49798 (P49798 whole entry, looked up): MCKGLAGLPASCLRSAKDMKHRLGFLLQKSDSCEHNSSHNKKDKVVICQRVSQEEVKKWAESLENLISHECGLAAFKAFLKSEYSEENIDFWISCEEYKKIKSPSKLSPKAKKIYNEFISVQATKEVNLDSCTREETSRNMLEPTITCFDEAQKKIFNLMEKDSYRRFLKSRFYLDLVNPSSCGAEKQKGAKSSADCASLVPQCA
In general terms: Quantitative high-throughput screening tests each substance at several concentrations.
Consider `CCCCCCCCCCCCCCCCCCOC[C@H](COP(=O)([O-])OCC[N+](C)(C)C)OC`, for which the “activity change, negative = inhibition” value was inactive: -0.397% [at 56.9 µM].

For the molecule `CNC(=O)[C@H]1O[C@@H](n2cnc3c(NCc4ccc(N)cc4)ncnc32)[C@H](O)[C@@H]1O`, the “activity change, negative = inhibition” value was inactive: -11.7% [at 56.9 µM].

Take `COc1cc2c(cc1O)CC[C@@H]1[C@@H]2CC[C@]2(C)[C@@H](O)CC[C@@H]12`: the Potency result is “inactive”.

Regarding `NC(=O)C1=CN(C2OC(COP(=O)(O)OP(=O)(O)OC[C@H]3O[C@@H](n4cnc5c(N)ncnc54)[C@H](OP(=O)(O)O)[C@@H]3O)C(O)C2O)C=CC1` (stereo not given in full), the Potency is active: 13.4 µM.

With `O=S(=O)(/N=S1\CC=CCN1S(=O)(=O)c1ccccc1)c1ccccc1` (stereo not given), the “activity change, negative = inhibition” value was inactive: -125%.

In the case of `Cc1ccc(N(CC2=NCCN2)c2cccc(O)c2)cc1`, the Potency entry was “inactive”.

With `CC[n+]1c(/C=C/C=C2/N(C)c3ccccc3C2(C)C)sc2ccccc21`, the Potency is active: 21.2 µM.

With `Cc1ccc2occ(C3NC(C(=O)O)CS3)c(=O)c2c1` (stereo not given), the “activity change, negative = inhibition” value is inactive: -7.33%.

Consider `COc1cc2nc(N3CCN(C(=O)OCc4ccccc4)[C@H](C(=O)NC(C)(C)C)C3)nc(N)c2cc1OC`, for which the “activity change, negative = inhibition” value is inactive: -11.3%.

Regarding `COc1ccc(C(=O)NCCCN2CCOCC2)cc1Br`, the “activity change, negative = inhibition” value is inactive: 71.1%.

As to `O=C(OCCN1CCOCC1)C1(c2ccccc2)CCCCC1`, the Potency entry was “inactive”.

For the molecule `Cc1cccc(Cn2nc(C)cc2NC(=O)CCCn2ccc([N+](=O)[O-])n2)c1`, the “activity change, negative = inhibition” value is inactive: 61.9%.

As for `Cc1ccc(Nc2c(-c3ccc(C)o3)nc3cnccn23)cc1`, the “activity change, negative = inhibition” value was inactive: -94.1%.

`Oc1ccc(NCc2ccc(OCc3ccccc3)cc2)cc1`: the “activity change, negative = inhibition” value was inactive: -48.2%.

Take `c1ccc2c(c1)CCCC2C1=NCCN1` (stereo not given): the Potency entry is “inactive”.

Regarding `CCNC(=O)[C@H]1O[C@@H](n2cnc3c(N)nc(NCCc4ccc(CCC(=O)O)cc4)nc32)[C@H](O)[C@@H]1O`, the “activity change, negative = inhibition” value was inactive: 1.91%.

`COc1ccc(Oc2ccc(N/C=C3/CCCC3=O)cc2)cc1`: the “activity change, negative = inhibition” value is inactive: 3.17%.

On to `C[C@](N)(Cc1ccc(O)cc1)C(=O)O`, for which the “activity change, negative = inhibition” value is inactive: 2.25% [at 56.9 µM].

Consider `CCCC[C@@H]1CCCO[C@@](C(=O)NCc2ccc(C)o2)(C(F)(F)F)C1`, for which the “activity change, negative = inhibition” value was inactive: -49.7%.

Take `C[N+](C)(C)CCOP(=O)(O)OP(=O)([O-])OC[C@H]1O[C@@H](n2ccc(N)nc2=O)[C@H](O)[C@@H]1O`: the Potency entry was “inactive”.

As for `O=C1NC(=O)C(c2ccccc2[N+](=O)[O-])=C1Nc1ccc(O)c(Cl)c1`, the “activity change, negative = inhibition” value is inactive: -0.261%.

Consider `CCCCCCCCCCCCCCCC(=O)NCC(COP(=O)([O-])OCC[N+](C)(C)C)OCC` (stereo not given), for which the Potency is active: 21.2 µM.

With `Cc1ccccc1-c1nc(CS(=O)CC(=O)NCCc2ccc(Cl)cc2)c(C)o1` (stereo not given), the “activity change, negative = inhibition” value was inactive: -17.3%.

As to `N#C/C(=C\c1ccc(O)c(O)c1)C(=O)Nc1ccccc1`, the “activity change, negative = inhibition” value is inactive: -13.3%.

Take `CCOC(=O)Cc1csc(NC(=O)Cc2ccccc2)n1`: the “activity change, negative = inhibition” value was inactive: 56.5%.

Turning to `C[C@H]1CCC2[C@](C)(CO)[C@@H](O)CC[C@]2(C)[C@@]12CCC(CO)(CCO)O2` (stereo not given in full), the “activity change, negative = inhibition” value was inactive: -5.53%.

Consider `OCC[C@@H]1C[C@H](O)[C@@H](O)[C@]2(CCc3ccccc3CO2)O1`, for which the “activity change, negative = inhibition” value was inactive: -10.5%.

In the case of `Cc1cccc(C(=O)N=c2c(C#N)cc3c(=O)n4cccc(C)c4nc3n2Cc2ccco2)c1`, the “activity change, negative = inhibition” value is inactive: -41.1%.

As to `CCOC(=O)CNC(=O)C1CCC(CNS(=O)(=O)c2cccc3nsnc23)CC1` (stereo not given), the “activity change, negative = inhibition” value is inactive: 70.5%.

On to `O=C(Nc1nnc(-c2ccc(Cl)cc2)o1)Nc1ccccc1Cl`, for which the “activity change, negative = inhibition” value is inactive: 57.7%.

For `O=c1cc2n(c(=O)[nH]1)CCC1=C2CCCC1`, the “activity change, negative = inhibition” value is inactive: 58.2%.

In the case of `O=C(NCc1ccncc1)c1cc(F)c(F)cc1Cl`, the “activity change, negative = inhibition” value is inactive: 91.2%.

`N=C(N)c1ccc(N=Nc2c(O)ccc3c2[nH]c2ccccc23)cc1`: the “activity change, negative = inhibition” value was inactive: 66.1%.

As to `O=C(Nc1cccc(NC(=O)c2cccs2)c1)c1ccc2c(c1)OCO2`, the “activity change, negative = inhibition” value was inactive: 57.5%.

In the case of `OCCN1CCN(CC/C=C2/c3ccccc3Sc3ccc(C(F)(F)F)cc32)CC1`, the “activity change, negative = inhibition” value was inactive: -11.8%.

In the case of `NCC(O)C1CCCCCCC1` (stereo not given), the “activity change, negative = inhibition” value is inactive: 1.19% [at 56.9 µM].

`CN1CCC(=C2c3ccccc3C=Cc3ccccc32)CC1`: the “activity change, negative = inhibition” value is inactive: -6.52%.

On to `BrC(=C\c1ccccc1)/C=N/Nc1nc(N2CCOCC2)nc(N2CCOCC2)n1`, for which the “activity change, negative = inhibition” value was inactive: -6.24%.

In the case of `NNCCc1ccccc1`, the “activity change, negative = inhibition” value was inactive: -21.4%.

Turning to `O=C(NCC1CCCO1)/C(=C\c1ccccc1)NC(=O)c1ccccc1` (stereo not given), the “activity change, negative = inhibition” value is inactive: -14.2%.

For the molecule `C[C@H](NC(=O)[C@@H]1Cc2ccccc2CN1)C(=O)NCC1CCCO1` (stereo not given in full), the “activity change, negative = inhibition” value was inactive: -64.3% [at 56.9 µM].

For the molecule `CCCCC/C=C\C/C=C\CCCCCCCC(=O)O[C@@H](CO)COC(=O)CCCCCCCCCCCCCCCCC`, the Potency was active: 2.67 µM.

As to `CCn1c(SCC(=O)N/N=C/C=C\c2ccccc2[N+](=O)[O-])nnc1-c1ccccc1`, the “activity change, negative = inhibition” value is inactive: 28.8%.

Turning to `Cc1c(NS(=O)(=O)c2ccccc2F)c(=O)n(-c2ccccc2)n1C`, the “activity change, negative = inhibition” value is inactive: 58.2%.

In the case of `C[C@@](N)(C(=O)O)[C@@H]1C[C@@H]1C(=O)O`, the Potency is active: 23.8 µM.

The record behind these values is PubChem BioAssay AID504845 (National Center for Advancing Translational Sciences (NCATS), 2011).
